Data as given in PubChem BioAssay AID504845 (National Center for Advancing Translational Sciences (NCATS), 2011).
Among all 390,000 compounds or so, about 150 (0.038%) were called active. This list was built around the results that the source calls inconclusive (neither active nor inactive); the mix of calls is not that of the screen. Calls come from the whole dose curve; as a rule, active = well fitted inhibition curve with a large enough effect; inconclusive = small, poorly fitted or top-dose-only effect; inactive = no such curve, though single readings can be large or run the other way. Potencies beside an inconclusive call are fits to weak or partial responses and may not hold up.

Target: Regulator of G-protein signaling 4 (Homo sapiens) (UniProt P49798)
Test: Inhibitors of Regulator of G Protein Signaling (RGS) 4: qHTS; note: nearly all actives have a fitted effect of over 75% in size
Conditions: Transcreener GDP fluorescence polarization, RGS4-accelerated GTP hydrolysis; series mostly up to 114 µM; activity change, negative = inhibition: at the top concentration
Procedure, shortened: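 MLSMR compounds (23 nl, pin-transferred) preincubated 10 min at room temperature with a 500nM (2x) first reagent, then RGS4 at 900nM (2x) plus Transcreener GDP mix added; fluorescence polarization (620/688 nm) read before and after 90 min at 30 °C.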
% is set by controls: 0 for no effect and ±100 for the full control effect; potency is the fitted concentration of half-maximal effect; tags give direction and shape of the fitted curve.

UniProt P49798, sequence (P49798 whole entry, looked up): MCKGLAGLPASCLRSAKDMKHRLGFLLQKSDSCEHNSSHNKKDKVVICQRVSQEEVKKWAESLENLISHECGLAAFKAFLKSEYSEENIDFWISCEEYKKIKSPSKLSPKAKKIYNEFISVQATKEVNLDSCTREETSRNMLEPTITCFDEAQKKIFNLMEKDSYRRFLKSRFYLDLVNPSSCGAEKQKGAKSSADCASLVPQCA

Row | SMILES | activity change, negative = inhibition | Potency
1 | Cc1cccn2c(=O)c(C(=O)N3CCN(c4ccccc4)CC3)cnc12 | inactive: 11.7% | 
2 | CC1=C(C(N)=O)S(=O)(=O)c2ccccc21 |  | inconclusive: 31.6 µM [inhibitor, full curve, poor fit]
3 | Cc1c(C(=O)OCCOC(C)C)[nH]c2c1C(=O)CC(c1ccco1)C2 (configuration not stated) | inactive: -28.1% | 
4 | CC(C)C1Cc2ccccc2-c2[nH]c(=S)[nH]c(=O)c21 (configuration not stated) |  | inconclusive: 89.1 µM [inhibitor, partial curve, poor fit]
5 | C=CCn1c2ccccc2c2nnc(SCN3C(=O)c4ccccc4C3=O)nc21 |  | inconclusive: 79.4 µM [inhibitor, partial curve, poor fit]
6 | COc1cccc(/C=C/C(=O)Oc2ccc(C(=O)c3ccc(F)cc3)cc2)c1 | inactive: 17.2% | 
7 | COc1ccc(N(CC(=O)NCCc2ccc(Cl)cc2)S(=O)(=O)c2c(C)[nH]c(=O)[nH]c2=O)cc1 | inactive: 12.5% | 
8 | N/C(=N\OC(=O)N1c2ccccc2Sc2ccccc21)c1ccc(Br)cc1 |  | inconclusive: 44.7 µM [inhibitor, partial curve, poor fit]
9 | O=c1c2c([N+](=O)[O-])cc([N+](=O)[O-])cc2sn1-c1ccc(Br)cc1 |  | inconclusive: 20 µM [inhibitor, full curve, poor fit]
10 | Cc1ccc(S(=O)(=O)N(C)C)cc1NC(=O)COC(=O)COc1ccc2c(C)cc(=O)oc2c1 | inactive: -3.66% | 
11 | Cc1cc(NC(=O)CSc2nc3ccsc3c(=O)n2Cc2ccccn2)n[nH]1 | inactive: 33.9% | 
12 | CCCCC(CC)CNC(=O)CCCCCn1c(=O)[nH]c2ccsc2c1=O (configuration not stated) | inactive: -10.7% | 
13 | O=C1CCN(Cc2ccccc2)C=C1c1ccc2ccccc2c1 |  | inconclusive: 70.8 µM [inhibitor, partial curve, poor fit]
14 | CN(C)c1ncc(C2=C(Cl)C(=O)C(N3CCCC3)=C(Cl)C2=O)s1 |  | inconclusive: 35.5 µM [inhibitor, full curve, poor fit]
15 | N#CC1(Cc2ccccc2)c2ccccc2C=CN1C(=O)c1ccccc1 (configuration not stated) | inactive: -14.2% | 
16 | Cc1ccc2occ(/C=N/O)c(=O)c2c1 |  | inconclusive: 89.1 µM [inhibitor, single point]
17 | Cn1c(=O)c(=O)n(C)c2cc(S(=O)(=O)CCC(=O)N3CCOCC3)ccc21 |  | inconclusive: 50.1 µM [inhibitor, partial curve, poor fit]
18 | O=C(Nc1nc2ccccc2n1CCN1CCCC1)C1CCCCC1 |  | inconclusive: 100 µM [inhibitor, partial curve, poor fit]
19 | CNC(=O)[C@H]1O[C@@H](n2cnc3c(N)ncnc32)[C@H](O)[C@@H]1O |  | inconclusive: 0.947 µM [inhibitor, full curve, poor fit]
20 | Cc1ccc(C)c(N2CCN(C(=O)Cn3nc(C)c4sc5ccccc5c4c3=O)CC2)c1 | inactive: -5.5% | 
21 | O=C(O)CNC(=O)CC1S/C(=N/N=C/c2ccccc2O)NC1=O (configuration not stated) |  | inconclusive: 50.1 µM [inhibitor, partial curve, poor fit]
22 | CCN1CCc2c(sc(NC(=O)c3ccc(S(=O)(=O)N(CC)c4ccccc4)cc3)c2C(N)=O)C1 | inactive: -28.1% | 
23 | O=[N+]([O-])c1ccccc1S(=O)(=O)N1CCN(c2nc(-c3ccccc3)nc3ccccc23)CC1 | inactive: 30.3% | 

Row | SMILES | activity change, negative = inhibition | Potency
24 | CCCCC(CCC(=O)Nc1ccn(-c2ccccc2)n1)C(=O)O (configuration not stated) | inactive: 23.7% [at 11.4 µM] | 
25 | Cc1cc2nc(-c3ccc(SCC(=O)Nc4ccc(S(=O)(=O)N5CCCC5)cc4)nc3)[nH]c2cc1C |  | inconclusive: 79.4 µM [inhibitor, partial curve, poor fit]
26 | COCCCn1c(SCC(=O)Nc2ccc(C)cc2)nc2ccccc2c1=O | inactive: 0.415% | 
27 | COc1ccc(OC)c(CNC(=O)NCc2noc3ccc(C)cc23)c1 |  | inconclusive: 100 µM [inhibitor, single point]
28 | O=C(/C=C/c1ccc(Cl)cc1)c1cccnc1 |  | inconclusive: 17.8 µM [inhibitor, full curve, poor fit]
29 | Cn1cccc1C(=O)OCC(=O)Nc1ccc2c(c1)OCCO2 | inactive: -6.73% | 
30 | COc1cccc(C=Nc2cc(C(C)C)c(O)cc2C)c1O |  | inconclusive: 28.2 µM [inhibitor, full curve, poor fit]
31 | CCC/C(O)=C1\C(=O)CC(C)(C)CC1=Nc1ccccc1O |  | inconclusive: 20 µM [inhibitor, full curve, poor fit]
32 | CC1(C)CC(c2nc(-c3ccc([N+](=O)[O-])cc3)cs2)CCO1 (configuration not stated) |  | inconclusive: 79.4 µM [inhibitor, partial curve, poor fit]
33 | O=C(O)c1ccccc1-c1c2cc(I)c(=O)c(I)c-2oc2c(I)c(O)c(I)cc12 |  | inconclusive: 79.4 µM [inhibitor, single point]
34 | COc1ccc(C(=O)Nc2nc(-c3ccccn3)cs2)cc1S(=O)(=O)N1CCOCC1 |  | inconclusive: 17.8 µM [inhibitor, full curve, poor fit]
35 | CCOc1ccc(C(=O)NC(C(=O)N2CCC2)C(C)C)cc1 (configuration not stated) | inactive: 48.3% | 
36 | O=C(NNc1nc(=O)c2cccnc2s1)c1ccccc1O |  | inconclusive: 56.2 µM [inhibitor, partial curve, poor fit]
37 | C=CCOC(=O)C1=C[C@H](c2ccc(C(F)(F)F)cc2)[C@@H](CCCO)[C@H](OCC)O1 | inactive: 8.59% | 
38 | N#CC1=C(N)C(C#N)(C#N)C(c2cccnc2)C2CC(c3ccccc3)CC=C12 (configuration not stated) |  | inconclusive: 50.1 µM [inhibitor, partial curve, poor fit]
39 | CC(N)(C(=O)O)c1cccc(CC(=O)O)c1 (configuration not stated) |  | inconclusive: 2.38 µM [inhibitor, partial curve, poor fit]
40 | Cc1nc(-c2ccc(NC(=O)/C=C\C(=O)O)cc2)cs1 |  | inconclusive: 50.1 µM [inhibitor, partial curve, poor fit]
41 | Brc1c(Br)c(Br)c2[nH]cnc2c1Br |  | inconclusive: 37.7 µM [inhibitor, single point]
42 | CC1(C)COC(c2cc([N+](=O)[O-])ccc2Cl)=N1 |  | inconclusive: 70.8 µM [inhibitor, single point]
43 | O=C(NCCc1ccc(Cl)cc1)c1cc2c(s1)-c1ccccc1OC2 |  | inconclusive: 20 µM [inhibitor, full curve, poor fit]
44 | C=CCSC1=C(C#N)C(c2ccc(OCC)cc2)CC(=O)N1 (configuration not stated) |  | inconclusive: 50.1 µM [inhibitor, partial curve, poor fit]
45 | CCc1ccc(C(=O)/C=C/c2ccc([N+](=O)[O-])o2)cc1 |  | inconclusive: 79.4 µM [inhibitor, partial curve, poor fit]
46 | COc1cccc2c3cccc(OC)c3c3[nH]cnc3c12 |  | inconclusive: 79.4 µM [inhibitor, single point]

Row | SMILES | activity change, negative = inhibition | Potency
47 | S=c1nc(-c2cc(Cl)cc(Cl)c2)[nH][nH]1 |  | inconclusive: 56.2 µM [inhibitor, partial curve, poor fit]
48 | COc1ccc(C(=O)C2CCN(CC(=O)NCc3ccccc3)CC2)cc1 | inactive: 6.49% | 
49 | Cn1c(=O)[nH]c(=O)c2c1ncn2CCN1CCOCC1 |  | inconclusive: 89.1 µM [inhibitor, single point]
50 | ON=C1c2cc(OCCN3CCCCC3)ccc2-c2ccc(OCCN3CCCCC3)cc21 |  | inconclusive: 100 µM [inhibitor, partial curve, poor fit]
51 | COc1cccc(C2=NN(C(=O)c3cccs3)C(O)(C(F)(F)F)C2)c1 (configuration not stated) |  | inconclusive: 56.2 µM [inhibitor, partial curve, poor fit]
52 | COc1ccc([C@H]2CC(=O)C=C(c3ccc(CO)cc3)C2)cc1 |  | inconclusive: 50.1 µM [inhibitor, partial curve, poor fit]
53 | Oc1ccc2ccccc2c1/C=N/Nc1ccccc1 |  | inconclusive: 50.1 µM [inhibitor, partial curve, poor fit]
54 | CCN(CC)C(=O)C1CCN(Cc2ccc(OCc3ccccc3)cc2)CC1 | inactive: 8.39% | 
55 | O=C(COC(=O)c1ccc(Br)cc1)NCCN1C(=O)CSC1=O |  | inconclusive: 100 µM [inhibitor, single point]
56 | COc1ccccc1N1CCN(CCOc2c(OC)cccc2OC)CC1 | inactive: -13.1% [at 56.9 µM] | 
57 | Cc1ccc(CCNC(=O)c2ccc(Cn3c(=O)c4cccn4c4cccnc43)cc2)cc1 |  | inconclusive: 28.2 µM [inhibitor, full curve, poor fit]
58 | COc1cc(OC)c(NC(=O)Nc2sc3nc4n(c(=O)c3c2C)CCC(C)CC4)cc1Cl (configuration not stated) | inactive: -20.1% | 
59 | O=C(COc1cccc(Cl)c1)N1CCC(c2nc3ccccc3s2)CC1 | inactive: 9.49% | 
60 | CCOC(=O)/C(=C\c1cccc(O)c1)c1nc2sc(C)c(C)c2c(=O)[nH]1 |  | inconclusive: 100 µM [inhibitor, partial curve, poor fit]
61 | CCOC(=O)c1ccc(Cl)c(S(=O)(=O)N2CCCC2)c1 |  | inconclusive: 39.8 µM [inhibitor, partial curve, poor fit]
62 | O=C(CC(Nc1cccc(Cl)c1Cl)C(=O)O)c1ccccc1 (configuration not stated) |  | inconclusive: 79.4 µM [inhibitor, partial curve, poor fit]
63 | COc1cc(NC(=O)c2ccc(S(=O)(=O)N(C)c3ccccc3)cc2)cc(OC)c1 | inactive: 7.5% | 
64 | CNc1ccccc1C(C)(C)c1cc(-c2cccc(OC)c2)no1 | inactive: -17.6% | 
65 | COc1ccc(NC(=O)c2cc(S(=O)(=O)Nc3ccc(OC)cc3)cs2)cc1 | inactive: -6.43% | 
66 | CC/C=C\C/C=C\C/C=C\C/C=C\C/C=C\CCCC(=O)O |  | inconclusive: 8.44 µM [inhibitor, partial curve, poor fit]
67 | Oc1ccc(/C=N/Nc2ccccc2)cc1 |  | inconclusive: 89.1 µM [inhibitor, single point]
